Assay results reported in the supplement of paper PMC12217912.
The other results are listed elsewhere or left out. The full chains were built here from the parent and the listed change. Values near 0.05 are background.

B1: TEV protease; numbered along this chain (parent)
chain: MGESLFKGPRDYNPISSSICHLTNESDGHTTSLYGIGFGPFIITNKHLFRRNNGTLVVQSLHGVFKVKDTTTLQQHLVDGRDMIIIRMPKDFPPFPQKLKFREPQREERICLVTTNFQTKSMSSMVSDTSCTFPSGDGIFWKHWIQTKDGQCGSPLVSTRDGFIVGIHSASNFTNTNNYFTSVPKNFMELLTNQEAQQWVSGWRLNADSVLWGGHKVFMVKPEEPFQPVKEATQL

Variants of: B1
Assay: raw area under fraction-flipped curve 0-4 h after induction (AUC4h, not background-subtracted), DNA-recorder readout of cleavage of the substrate (dimensionless); higher = more cleavage of the substrate by the protease variant
Details: temperature: 34 °C; time window: 0-4 h after rhamnose induction
Protocol: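 In vivo DNA recorder in E. coli TOP10(DE3) ΔrhaA at 34 °C. Each TEVp single-site mutant (parent TEVp 0) is paired with a single-site variant of the 7-mer TEVs (canonical ENLYFQ|S). The substrate sits between flexible linkers in a Bxb1-sfGFP-TEVs-SsrA fusion, so cleavage stabilises Bxb1 and speeds flipping of a recombination array, read by NGS. The value is the raw area under the fraction-flipped curve over 0-4 h after rhamnose induction (AUC4h), with ≥20 reads per time point. It is not background-subtracted; inactive controls average about 0.047.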
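Further: Bxb1 expression induced with 0.2% (w/v) L-rhamnose at OD600 near 0.5, cultures sampled hourly, flipped fraction per protease–substrate barcode pair counted by paired-end Illumina sequencing.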

Variant	area with substrate EALYFQS	area with substrate ECLYFQS	area with substrate EDLYFQS	area with substrate EFLYFQS	area with substrate EGLYFQS	area with substrate EHLYFQS	area with substrate EILYFQS	area with substrate EKLYFQS	area with substrate EMLYFQS	area with substrate ERLYFQS	area with substrate ESLYFQS	area with substrate EYLYFQS	area with substrate ELLYFQS	area with substrate EQLYFQS	area with substrate EVLYFQS	area with substrate EWLYFQS	area with substrate EELYFQS	area with substrate EPLYFQS	area with substrate ETLYFQS
S18R	0.0965	0.115	0.103	0.0755	0.105	0.0753	0.089	0.0874	0.129	0.0957	0.0914	0.103							
M219C	0.115				0.0768			0.0917	0.0798		0.102		0.0964	0.105	0.0993	0.117			
M219V	0.134	0.102			0.121			0.0768	0.12	0.0915	0.098	0.113		0.117	0.09	0.1	0.128	0.0927	0.133
E231T	0.129	0.137			0.101	0.104	0.113	0.092		0.0932	0.102		0.103	0.0976	0.0931	0.0986			0.0991
R10P	0.128	0.096	0.114	0.113	0.1	0.117	0.0934	0.0973		0.0653	0.0894	0.108		0.118	0.0932	0.0991		0.009	0.0965
H47K	0.0583	0.0591	0.0544			0.0617	0.0868	0.0423	0.0422	0.0558	0.0522			0.0489	0.058		0.0574	0.0616	0.05
T176Y	0.0805	0.0671	0.0656	0.08		0.0727	0.0431	0.0658	0.0652	0.0658	0.0686			0.0624	0.0399	0.0619			0.0779
D27K	0.0858	0.0826	0.11				0.0681	0.115	0.0974		0.087		0.083	0.098	0.0958	0.0886	0.083	0.112	
S17D	0.115	0.098	0.112	0.0843	0.0973	0.103	0.104	0.154	0.118	0.13	0.103	0.0683	0.104	0.126	0.0923	0.0795		0.137	
I42C	0.101	0.0903	0.0965		0.0608	0.102	0.0682	0.0892	0.0955	0.0852	0.0908	0.0969	0.0946	0.115	0.0872	0.0885	0.106	0.0939	0.0803
H143C	0.089	0.1	0.133			0.0762		0.0819			0.07		0.066	0.087	0.0716	0.0913			0.0788
R10V	0.096	0.0567	0.103	0.056	0.0722		0.0723	0.0879	0.0536	0.0944	0.0932	0.0626	0.071	0.0775		0.0684		0.102	0.104
N45V	0.0719	0.071		0.0747	0.0611		0.0615	0.0693		0.0654	0.0655	0.0505	0.064	0.0697	0.0751	0.0564	0.0842		0.0778
